Here are results for 34 variants from the GPR68 mutational scans of Howard et al. (2025).

Scores with a large standard error are left out. The source holds two more conditions with little spread; they are left out. Names with del lack the residues named; names with ins carry added residues between the positions named. For some assays here: The concentration of ogerin is not given here.

First the molecules themselves.
B1: GPR68, Q15743 (parent)
chain: MGNITADNSSMSCTIDHTIHQTLAPVVYVTVLVVGFPANCLSLYFGYLQIKARNELGVYLCNLTVADLFYICSLPFWLQYVLQHDNWSHGDLSCQVCGILLYENIYISVGFLCCISVDRYLAVAHPFRFHQFRTLKAAVGVSVVIWAKELLTSIYFLMHEEVIEDENQHRVCFEHYPIQAWQRAINYYRFLVGFLFPICLLLASYQGILRAVRRSHGTQKSRKDQIQRLVLSTVVIFLACFLPYHVLLLVRSVWEASCDFAKGVFNAYHFSLLLTSFNCVADPVLYCFVSETTHRDLARLRGACLAFLTCSRTGRAREAYPLGAPEASGKSGAQGEEPELLTKLHPAFQTPNSPGSGGFPTGRLA

In series [1] the parent is B1. Put plainly: cAMP reporter score (Enrich2 score, wild type = 0); higher = more signal; HEK293T, FACS bins.
Variants of B1 are the subject of series [2]. The series can be described thus: surface expression score (Enrich2 score, wild type = 0); higher = more signal; HEK293T, FACS bins.

As for S331_G332del, the cAMP reporter score is 0.864 in series [1] (pH 5.5); -0.4 in series [1] (pH 6); 0.418 in series [1] (pH 6, modulator: ogerin); 0.465 in series [1] (pH 6.5, modulator: ogerin). The surface expression score in series [2] was 0.45.

Regarding S331Q, the cAMP reporter score in series [1] (pH 5.5) is 1.2; in series [1] (pH 6), 0.179; in series [1] (pH 6, modulator: ogerin), 0.571; in series [1] (pH 6.5, modulator: ogerin), 0.89. Moreover, the surface expression score in series [2] was found to be 1.19.

On to S331P, for which the cAMP reporter score in series [1] (pH 5.5) is 0.006; in series [1] (pH 6) it was -0.383; in series [1] (pH 6, modulator: ogerin), 0.757; in series [1] (pH 6.5, modulator: ogerin), 0.274. Besides, the surface expression score in series [2] was found to be 1.29.

As for S331R, the cAMP reporter score in series [1] (pH 5.5) was 1.07; in series [1] (pH 6) it was -0.733; in series [1] (pH 6, modulator: ogerin), 0.887; in series [1] (pH 6.5, modulator: ogerin) it was 1.03. The surface expression score in series [2] is 1.55.

For the variant S331L, the cAMP reporter score in series [1] (pH 5.5) worked out at 2.21; in series [1] (pH 6), 1.04; in series [1] (pH 6, modulator: ogerin), 2.04; in series [1] (pH 6.5, modulator: ogerin) it was 1.77. The surface expression score in series [2] worked out at 0.94.

Take S331M: the cAMP reporter score in series [1] (pH 5.5) was found to be 0.207; in series [1] (pH 6), 1.69; in series [1] (pH 6, modulator: ogerin) it was 1.2; in series [1] (pH 6.5, modulator: ogerin) it was 1.8. Besides, the surface expression score in series [2] was 0.764.

Turning to S331N, the cAMP reporter score in series [1] (pH 5.5) was 0.385; in series [1] (pH 6, modulator: ogerin), -0.729; in series [1] (pH 6.5, modulator: ogerin), -0.401. Further, the surface expression score in series [2] is -0.312.

For S331I, the cAMP reporter score in series [1] (pH 5.5) was -0.729; in series [1] (pH 6, modulator: ogerin), 0.042. Moreover, the surface expression score in series [2] is -0.957.

With S331C, the cAMP reporter score in series [1] (pH 5.5) came out at 0.89; in series [1] (pH 6), 0.573; in series [1] (pH 6, modulator: ogerin), 0.376; in series [1] (pH 6.5, modulator: ogerin) it was 0.324. Further, in series [2], the surface expression score stood at 0.458.

S331F: the cAMP reporter score in series [1] (pH 5.5) came to 0.581; in series [1] (pH 6, modulator: ogerin) it was 0.405; in series [1] (pH 6.5, modulator: ogerin), 0.918. For the same variant, in series [2], the surface expression score is -0.096.

For the variant S331T, the cAMP reporter score in series [1] (pH 5.5) was 1.9; in series [1] (pH 6), 1.03; in series [1] (pH 6, modulator: ogerin) it was 1.56; in series [1] (pH 6.5, modulator: ogerin) it was 1.66. The surface expression score in series [2] came out at 2.14.

Take S331E: the cAMP reporter score in series [1] (pH 5.5) was 0.308; in series [1] (pH 6), -0.807; in series [1] (pH 6, modulator: ogerin), 0.208; in series [1] (pH 6.5, modulator: ogerin), -0.317. Besides, the surface expression score in series [2] worked out at 0.113.

With S331Y, the cAMP reporter score in series [1] (pH 5.5) was -0.465; in series [1] (pH 6), -0.342; in series [1] (pH 6, modulator: ogerin), -0.649; in series [1] (pH 6.5, modulator: ogerin), -1.42. The surface expression score in series [2] was -1.82.

In the case of S331K, the cAMP reporter score is 0.02 in series [1] (pH 5.5); 0.34 in series [1] (pH 6); 0.253 in series [1] (pH 6, modulator: ogerin); 0.276 in series [1] (pH 6.5, modulator: ogerin). Moreover, in series [2], the surface expression score was 0.651.

On to S331G, for which the cAMP reporter score in series [1] (pH 5.5) is 1.03; in series [1] (pH 6), 0.851. Moreover, the surface expression score in series [2] came out at 1.64.

On to S331H, for which the cAMP reporter score in series [1] (pH 5.5) is -0.048; in series [1] (pH 6), 0.251; in series [1] (pH 6, modulator: ogerin), 0.611; in series [1] (pH 6.5, modulator: ogerin) it was 0.315. Besides, the surface expression score in series [2] is 0.156.

Take S331W: the cAMP reporter score in series [1] (pH 5.5) was 1.29; in series [1] (pH 6), 1.79; in series [1] (pH 6, modulator: ogerin), 1.26; in series [1] (pH 6.5, modulator: ogerin), 2.46.

Turning to S331A, the cAMP reporter score in series [1] (pH 5.5) is 1.64; in series [1] (pH 6, modulator: ogerin), 2.42; in series [1] (pH 6.5, modulator: ogerin), 2.31. In addition, the surface expression score in series [2] was determined as 0.337.

Take S331D: the cAMP reporter score in series [1] (pH 5.5) is 0.508; in series [1] (pH 6), -0.049; in series [1] (pH 6, modulator: ogerin) it was 0.617; in series [1] (pH 6.5, modulator: ogerin), 0.717. In addition, the surface expression score in series [2] amounted to 0.095.

Turning to K330M, the cAMP reporter score was 0.683 in series [1] (pH 5.5); 1.48 in series [1] (pH 6); 0.886 in series [1] (pH 6, modulator: ogerin); -0.079 in series [1] (pH 6.5, modulator: ogerin). Further, in series [2], the surface expression score came to 1.43.

Take K330V: the cAMP reporter score in series [1] (pH 5.5) is 0.337; in series [1] (pH 6, modulator: ogerin), -0.293; in series [1] (pH 6.5, modulator: ogerin), -0.34. For the same variant, the surface expression score in series [2] was -0.128.

Regarding K330I, the cAMP reporter score was 1.73 in series [1] (pH 5.5); -0.344 in series [1] (pH 6); 1.45 in series [1] (pH 6, modulator: ogerin); 1.23 in series [1] (pH 6.5, modulator: ogerin). The surface expression score in series [2] was 0.954.

Take K330G: the cAMP reporter score in series [1] (pH 5.5) is 0.938; in series [1] (pH 6), 0.147; in series [1] (pH 6, modulator: ogerin), 1.82; in series [1] (pH 6.5, modulator: ogerin), 1.63. Also, in series [2], the surface expression score was determined as 2.05.

With K330Y, the cAMP reporter score in series [1] (pH 5.5) is 0.44; in series [1] (pH 6.5, modulator: ogerin), -0.424. In series [2], the surface expression score is -1.01.

Consider K330N, for which the cAMP reporter score in series [1] (pH 5.5) was -0.351; in series [1] (pH 6), 0.643; in series [1] (pH 6, modulator: ogerin), -0.077; in series [1] (pH 6.5, modulator: ogerin), -0.38. In addition, the surface expression score in series [2] came out at 0.588.

As for K330P, the cAMP reporter score turned out to be 0.561 in series [1] (pH 5.5); 0.182 in series [1] (pH 6); 0.608 in series [1] (pH 6, modulator: ogerin); 0.743 in series [1] (pH 6.5, modulator: ogerin). The surface expression score in series [2] was determined as 0.498.

As to K330L, the cAMP reporter score in series [1] (pH 5.5) was -0.805; in series [1] (pH 6, modulator: ogerin), -0.393; in series [1] (pH 6.5, modulator: ogerin) it was -0.125. The surface expression score in series [2] came out at 0.732.

For the variant K330S, the cAMP reporter score in series [1] (pH 5.5) was -0.618; in series [1] (pH 6), -1.26; in series [1] (pH 6, modulator: ogerin), -0.517; in series [1] (pH 6.5, modulator: ogerin) it was -0.315. Moreover, the surface expression score in series [2] was -1.19.

On to K330T, for which the cAMP reporter score in series [1] (pH 5.5) was 0.792; in series [1] (pH 6), -1.01; in series [1] (pH 6, modulator: ogerin) it was 0.601; in series [1] (pH 6.5, modulator: ogerin), 0.24. For the same variant, the surface expression score in series [2] is 0.686.

K330Q: the cAMP reporter score in series [1] (pH 5.5) was -0.104; in series [1] (pH 6), 0.31; in series [1] (pH 6.5, modulator: ogerin) it was 0.527. Also, in series [2], the surface expression score was 1.48.

As to Q334_G335insGS, the cAMP reporter score was 1.24 in series [1] (pH 5.5); 0.739 in series [1] (pH 6, modulator: ogerin); 1.38 in series [1] (pH 6.5, modulator: ogerin).

On to G335del, for which the cAMP reporter score is -0.461 in series [1] (pH 5.5) and -0.391 in series [1] (pH 6, modulator: ogerin). In addition, the surface expression score in series [2] worked out at 0.162.

As for K330_S331del, the cAMP reporter score is 1.05 in series [1] (pH 5.5); 0.618 in series [1] (pH 6, modulator: ogerin); 0.725 in series [1] (pH 6.5, modulator: ogerin). Also, in series [2], the surface expression score was 0.309.

As to Q334_G335del, the cAMP reporter score was 0.582 in series [1] (pH 5.5); 0.04 in series [1] (pH 6); 0.394 in series [1] (pH 6, modulator: ogerin); -0.054 in series [1] (pH 6.5, modulator: ogerin). In addition, the surface expression score in series [2] was determined as 0.398.
